As a reminder, the GI50 is the concentration at which growth is held to half of that of the control.

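Step 1: Grow cells in 96-well plates. Step 2: Expose to compound for 48 hours at 5 concentrations. Step 3: Interpolate endpoints linearly; if unreached, use highest concentration. The concentration for 50% growth inhibition is given as GI50.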 Active and inactive are the calls of the source. No stated cut-off is given here; in the data, active = GI50 up to about 1.1 µM and inactive = higher.

The assay has as its system NCI-H322M. In words: DTP human tumour cell line panel, 48 h.
As for `CCCCCCCCCC[S+]([O-])CC(CO)NC(=O)/C=C/c1c(C)nc(O)nc1O` (configuration not stated), the GI50 was active: 0.195 µM.
Turning to `CN1CCN(CC(=O)Nc2cccc3ccccc23)CC1`, the GI50 is inactive: > 100 µM.
As to `O=C(O)c1oc(C(=O)O)c(C(=O)O)c1C(=O)O`, the GI50 is inactive: > 100 µM.
As for `COc1cc(C2c3cc4c(cc3OC(N3CCCCC3)C2C)OCO4)cc(OC)c1O` (configuration not stated), the GI50 is inactive: 16.9 µM.
As to `CN(N=O)c1ccc(/C=C/c2ccnc3ccccc23)cc1`, the GI50 was inactive: 46.8 µM.
Then `CCN1CCC(O)(C(C(=O)O)c2ccccc2)CC1` (configuration not stated), with inactive: > 100 µM; and `O=C(O)[C@H](NS(=O)(=O)c1ccc2ccccc2c1)c1ccccc1`, with inactive: > 100 µM.
On to `CC(C)Cn1cnc2c(Cl)nc3ccccc3c21`, for which the GI50 was inactive: 86.3 µM.
As to `CN(C)c1ccc(/C=C2\N=C(c3ccccc3)N(c3ccc4c(c3)Sc3cc(N5C(=O)/C(=C/c6ccc(N(C)C)cc6)N=C5c5ccccc5)ccc3N4)C2=O)cc1`, the GI50 was inactive: 16.8 µM.
For the molecule `CC(C)(CN1C(=O)C(Cl)=C(Cl)C1=O)CN1C(=O)C(Cl)=C(Cl)C1=O`, the GI50 was inactive: 24.8 µM.
Next, `Cc1ccc(N2C=Nn3c(nc4sc5c(c4c3=O)CCCC5)C2)cc1`: inactive: 72.3 µM; `CCOC(=O)Cc1csc(N/N=C2\C(=O)Nc3ccccc32)n1`: inactive: > 100 µM.
Consider `CCOC(=O)C1=C(C(=O)c2ccc(C)cc2)C(c2cccc([N+](=O)[O-])c2)C(C(=O)c2ccc(C)cc2)=C(C(=O)OCC)N1`, for which the GI50 was inactive: 17.2 µM.
Then `CC[C@H](C)C1=C(O)[N@+]2([O-])Oc3ccc(-c4c(O)c(O)c(-c5ccc(O)cc5)c(OC(C)=O)c4OC(C)=O)cc3O[C@]2([C@@H](C)CC)C(=O)N1O`, with inactive: 47.8 µM; and `Cc1nn(-c2ccccc2)c(S)c1C(=O)c1ccccc1`, with inactive: 50.8 µM.
Then `COC(=O)CC(NC(=O)OCc1ccccc1)C(C(=O)OCc1ccccc1)C(C)(OC)OC` (configuration not stated), with inactive: 55.7 µM; and `CCOC(=O)C(NC(=O)CC)(Nc1ccc(S(=O)(=O)Nc2nc(C)cc(C)n2)cc1)C(F)(F)F` (configuration not stated), with inactive: > 100 µM.
Regarding `C/C(=N\Nc1nc2ccccc2s1)c1cnccn1`, the GI50 is inactive: 3.7 µM.
Next, `O=C1C/C(=C/c2ccc(/C=C3/CC(=O)N(c4cccc(Br)c4)C3=O)cc2)C(=O)N1c1cccc(Br)c1`: inactive: > 100 µM.
Consider `CCCNC(=O)N(C)C(=O)N1N=C(c2ccccc2)C1c1ccccc1` (configuration not stated), for which the GI50 is inactive: > 100 µM.
`COc1ccc(CCCN2c3ccccc3Sc3ccccc32)cc1`: the GI50 is inactive: > 100 µM.
Then `CCCCCCCCCCCCNC(=O)CCC(NC(=O)c1ccc(N(C)Cc2cnc3nc(N)nc(N)c3n2)cc1)C(=O)NCCCCCCCCCCCC` (configuration not stated), with inactive: > 100 µM.
With `COc1cc(C2C(C(=O)Nc3ccc(Cl)c(Cl)c3)=C(C)NC(C)=C2C(=O)Nc2ccc(Cl)c(Cl)c2)ccc1O`, the GI50 is inactive: 16 µM.
Take `Cc1oncc1/N=C1\C=C(O)C(=O)c2ccccc21`: the GI50 is inactive: 16.7 µM.
Then `O=C1NC(NNc2ccccc2)=N/C1=C\c1ccccc1O`, with inactive: > 100 µM; and `Cc1ccc2nc(N/N=C/c3ccc(C)s3)cc(C)c2c1`, with inactive: 3.26 µM; and `CN(C)CCCc1cccc2[nH]c3c(c12)CN(C)CC3`, with inactive: > 100 µM.
Next, `Cn1c(=N)n[n+]([O-])c2ccccc21`: inactive: 12.7 µM; `CCn1c(=O)c2nc(SC)sc2n(-c2ccccc2)c1=S`: inactive: > 100 µM.
For the molecule `Cc1cc(C)n(-c2nsc3ccccc23)n1`, the GI50 was inactive: > 100 µM.
For the molecule `O=c1oc2ccccc2cc1-c1nc2ccccc2c(=O)[nH]1`, the GI50 was inactive: > 100 µM.
Next, `Cc1nn(-c2ccccc2)c(C)c1/C=N/NC(=O)c1sc(=S)n(-c2ccccc2)c1N`: inactive: 3.47 µM; `CCOc1cccc2cccnc12`: inactive: > 100 µM.
Next, `COc1cccc(C2c3cc4c(cc3OC(NNc3ccccc3)C2C)OCO4)c1O` (configuration not stated): inactive: 3.94 µM.
Next, `COC(CC1(CCNc2ccccc2)C(=O)N(COCC[Si](C)(C)C)c2ccccc21)OC` (configuration not stated): inactive: 15.8 µM; `NNC(=S)N/N=C(/C(=O)Nc1ccc(Cl)c(Cl)c1)C(C1OC(=O)c2ccccc21)[N+](=O)[O-]` (configuration not stated): inactive: > 100 µM; `CN(C)/C=N/S(=O)(=O)c1nn2c(C=O)c(-c3ccc(Cl)cc3)nc2s1`: inactive: 13 µM.
Take `O=C(O)CNn1c(SCC(=O)O)nnc(/C=C/c2c(O)ccc3ccccc23)c1=O`: the GI50 is inactive: 24.5 µM.
As for `NC1=CN(Cc2ccccc2)C2=N/C(=C\c3ccco3)C(=O)N12`, the GI50 was inactive: > 100 µM.
`FC(F)(F)c1ccc2c(-c3cc[nH]c3)ccnc2c1`: the GI50 is inactive: 18.7 µM.
Then `Cn1c(=O)c2c(nc(C[N+]3([O-])CCOCC3)n2C)n(C)c1=O`, with inactive: > 100 µM; and `CC1=NN(c2nc(N)nc(CN3CCOCC3)n2)C(C)(C)C1`, with inactive: > 100 µM.
Next, `N#C/C=C\c1ccc(-c2cc(C(F)(F)F)cc(C(F)(F)F)c2)o1`: inactive: > 100 µM.
With `O=C1CC[C@@H](S(=O)(=O)c2ccccc2)[C@@H](/C=C/c2ccccc2)O1`, the GI50 is inactive: > 100 µM.
Then `CN(C)CCCC1c2ccccc2Oc2ccc(C(F)(F)F)cc21` (configuration not stated), with inactive: 14.5 µM; and `COc1cc(O)c2c(c1)O[C@@H]1OCC[C@H]21`, with inactive: > 100 µM.
On to `CCNC(=O)Cc1nc2c(N)ncnc2n1C1OC(CO)C(O)C1O` (configuration not stated), for which the GI50 was inactive: > 100 µM.
Consider `COc1cccc2cc(C(=O)Nc3ccccc3)c(=N)oc12`, for which the GI50 was inactive: > 100 µM.
Then `Brc1ccc(-c2cn3ccncc3n2)cc1`, with inactive: > 100 µM.
Next, `CSc1c(CC(=O)Nc2ccc(Cl)cc2)n(Cc2ccccc2)c2ccccc12`: inactive: 22.2 µM.
Consider `COc1ccc(CCc2nccn2C)cc1OC`, for which the GI50 was inactive: > 100 µM.
Next, `CN(C)c1[se]nc2c1c(=O)n(C)c(=O)n2C`: inactive: > 100 µM; `COc1ccc2c(c1)/C(=C\c1c(C)nc3n1CCS3)C(=O)N2`: inactive: 44.3 µM.
Then `C#CCNCC(=O)O`, with inactive: > 100 µM; and `CCCCCCCCCCCCCCCCOP(=O)([O-])OCC[N+](C)(C)C1CC(C)(C)N(O)C(C)(C)C1`, with inactive: > 100 µM.
On to `O=C1Nc2ccccc2/C1=N/NC(=S)N1CCCCCC1`, for which the GI50 is inactive: 2.82 µM.
Then `O=c1cc(CSc2c(-c3ccccc3)c(=O)n(-c3ccccc3)c(=S)n2-c2ccccc2)[nH]c(=O)[nH]1`, with inactive: > 100 µM; and `NC(=O)N/N=C(/c1nc2ccc([N+](=O)[O-])cc2nc1O)C(O)c1ccco1` (configuration not stated), with inactive: 44.6 µM.
Then `CCOC(=O)/C=C1\C[C@H](NC(=O)OCc2ccccc2)C(=O)N1CC(=O)OCC`, with inactive: > 100 µM; and `CC1CC(N2CCOCC2)=Nc2ccccc2N1Cc1ccccc1` (configuration not stated), with inactive: > 100 µM.
Next, `CC1(C)Oc2ccccc2N2O[C@@H]3C(=O)N(c4ccccc4)C(=O)[C@@H]3C21c1ccccc1` (some centres not stated): inactive: 29.2 µM; `C=C1C(=O)OC2/C=C(\CO)CC/C=C(\CO)CC(OC(=O)C(C)C)C12` (configuration not stated): inactive: 34.8 µM.
For `Cc1ccc(C(=O)N/N=C(\N=N\c2cccc(C)c2)c2ccc(N(CCC#N)CCC#N)cc2C)cc1`, the GI50 was inactive: > 100 µM.
Next, `O=C(Nc1ccccc1C(=O)O)C(=O)C(C(=O)c1ccccc1-c1ccccc1)C1OC(=O)c2ccccc21` (configuration not stated): inactive: 14.1 µM.
Turning to `CCC(=O)C1=C(OC(C)=O)C2Cc3c(n(C)c4ccccc34)C(C1)N2C` (configuration not stated), the GI50 was inactive: > 100 µM.
Next, `O=C(O)/C=C/C(=O)N1Cc2cc3ccccc3nc2C1`: inactive: > 100 µM.
On to `C/C=C/[P+](c1ccccc1)(c1ccccc1)c1ccccc1`, for which the GI50 was inactive: 4.99 µM.
Next, `O=[N+]([O-])c1ccc(/C(=C\c2ccccc2)Cn2ccnc2)cc1`: inactive: 56.9 µM.
Next, `COC(=O)[C@]1(c2cc3ccccc3n2S(=O)(=O)c2ccccc2)CC2CCC1NC2` (some centres not stated): inactive: 15.5 µM.
Then `COC(=O)c1c(OC(=O)c2ccccc2)noc1CC(=O)OC1C=CCCC1` (configuration not stated), with inactive: > 100 µM.
On to `O=C(CSCC(=O)N/N=C\c1cc(Cl)cc(Cl)c1O)N/N=C\c1cc(Cl)cc(Cl)c1O`, for which the GI50 was inactive: 1.56 µM.
Then `O=[N+]([O-])C(=C(Nc1ccccc1)Nc1ccccc1)/C(Cl)=C(\Cl)[N+](=O)[O-]`, with inactive: 14 µM.
On to `CCCCCCCCCCCC(=O)N(CCCCCCCCCCC(=O)O)CC(O)C(O)C(OC1OC(CO)C(O)C(O)C1O)C(O)CO` (configuration not stated), for which the GI50 is inactive: > 100 µM.
Consider `CC(C)(C)c1ccnc(/N=C2\N/C(=N\c3cc(C(C)(C)C)ccn3)c3ccccc32)c1`, for which the GI50 is inactive: 18.5 µM.
Consider `O/N=N/c1ccc(-c2ccccc2)cn1`, for which the GI50 was inactive: 33.6 µM.
In the case of `CC[C@]12C=CCN3CCC4(c5cc([C@@]6(C(=O)OC)CC7CN(CCc8c6[nH]c6ccccc86)CC6CCCCC67)c(OC)cc5N(C)C4[C@](O)(C(=O)OC)C1OC(C)=O)[C@@H]32` (some centres not stated), the GI50 was active: < 0.01 µM.
As for `CC[C@@]1(O)C(=O)OCc2c1cc1n(c2=O)Cc2cc3cc4c(cc3nc2-1)OCO4`, the GI50 is active: 0.0171 µM.
Next, `Oc1cc(-c2cccc(OCc3ccccc3)c2)nc2cc3c(cc12)OCO3`: active: 0.824 µM; `COc1c(CC=C(C)C)c(O)c(C(CC(C)C)c2c(O)c(CC=C(C)C)c(O)c(C(C)=O)c2O)c(O)c1C(C)=O` (configuration not stated): active: 0.423 µM; `COc1ccc(-c2cc(=O)c3c(O)cc(C)cc3o2)cc1OC`: inactive: > 100 µM.
As to `CCN(CC)CCNc1ccc2ncn3c4c(OC)ccc(O)c4c(=O)c1c23`, the GI50 was inactive: 8.67 µM.
Then `CC(=O)c1csc2c1C(=O)c1ccccc1C2=O`, with inactive: 1.69 µM.
